# ± gives the standard deviation. In all, about 5,500 sequences were measured (“pre-steady-state target cleavage rate”: median about 0.1, highest 2% from about 0.64 on). The list shows a part of the results, in another mix than the full data.
# Test system: MIWI (PIWIL1) piRISC loaded with piRNA #2 (30 nt)
# Test: pre-steady-state target cleavage rate (min^-1); MIWI and MILI are mouse PIWI proteins and EfPiwi is from a freshwater sponge; tags in brackets are library labels; higher = faster piRNA-guided slicing of the target
# Conditions: guide: piRNA #2 5'p-UUAGGUAACCCAGUAGAUCCAGAGGAAUUC; auxiliary factor: 500 nM mouse GTSF1
# How it was run: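 In HEPES–potassium acetate buffer at 33 °C, […] transcribed, DNA-blocked target RNA library was mixed with 1 nM active affinity-purified piRISC carrying one synthetic guide, with or without 500 nM GTSF1 partner protein, for 0–8 or 0–960 min. Uncleaved targets were sequenced and normalised to depth and to weakly complementary targets; three trials were pooled and k3 was capped at 0.0001 min^-1. The pre-steady-state cleavage rate followed from a burst-and-steady-state fit.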
row,Sequence,pre-steady-state target cleavage rate
1,CAAUUCCUCUGGAUCUACUGGGCUACCUAA,0.14 ± 0.029
2,CAAUUCCUCUGGAUCUACUGGGUAAGCUAA,0.0773 ± 0.026
3,CUUAAGGAGUGGAUCUACUGGGUUACCUAAA,0.195 ± 0.035
4,CUUAACCUCUGGUCUACUGGGUUACCUAA,0.127 ± 0.028
5,CUUAUCCUCUGGAUCUACUGGGUUACGUAA,0.684 ± 0.049
6,CUAAUCCUCUGGAACUACUGGGUUACCUAA,0.484 ± 0.03
7,CUUAACCUCUGGUUCUACUGGGUUACCUUA,0.335 ± 0.055
8,CAAUUCCUCUGGAUCUACUGGGAAACCUAA,0.274 ± 0.049
9,GAAUACCACUGGAUCUACUGGGUUACCUAA,0.293 ± 0.042
10,CAAUUCCUCUGGAUCUAGUGCGUUACCUAA,0.092 ± 0.015
11,CUAUUCCUCUGCAUCAACUGGGUUACCUAA,0.394 ± 0.03
12,GAAUUCCUCUGGAUCUACUGGGUGUACCUAA,0.303 ± 0.046
13,CUAUUCCUCUGGAUCUACUGGGUUCCCUAA,0.246 ± 0.041
14,CUUAAGGAGACCAUCAACUCGGUUACCUAA,< 0.0001
15,CUUAAGGAGACCUAGAUGUGGCGUUACCUAA,0.00651 ± 0.0029
16,CUAUUCCUCUGGAGUCUACUGGGUUACCUAA,0.505 ± 0.051
17,GAAUUCCUCUGGAUCUACUGGGUUAGCUUA,0.379 ± 0.057
18,CUUAUCCUCUGGAUUUACUGGGUUACCUAA,0.555 ± 0.04
19,CUUAAGCUCUGGAUCUACUCGGUUACCUUA,0.0434 ± 0.013
20,CUUAACCUCUGGAUCUACUGGGUAUGCUAA,0.0233 ± 0.0061
21,CAAUUCCUCUGGAUCUACUGGGUUAGCUUA,0.211 ± 0.061
22,GAAUUCCCUGGAUCUACUGGGUUACCUAA,0.41 ± 0.049
23,CUUAACCUCUCGAUCUACUGGGAUACCUAA,0.35 ± 0.025
24,CAAUUCUCUCUGGAUCUACUGGGUUACCUAA,0.397 ± 0.055

row,Sequence,pre-steady-state target cleavage rate
1,CAAUUCCUCUGGAACUACUGGGUUACCAAA,0.289 ± 0.055
2,CUUAUCCUCUGCAUCUACUGGGUUACCUAA,0.362 ± 0.032
3,CUUAAGCUCUAGAUCUACUGGGUUACCUAA,0.158 ± 0.017
4,CUUAAGCUCUGGAUCUACAGGGAUACCUAA,0.0672 ± 0.011
5,GAAAUCCUCUGGUUCUACUGGGUUACCUAA,0.624 ± 0.05
6,GAAUUCCCUCUGGAUCUACUGGGUUACCUAA,0.26 ± 0.043
7,CUUAAGGAAUGGAUCUACUGGGUUACCUAA,0.219 ± 0.029
8,CUUAUCGUCUGGAUCUACUGGGUAACCUAA,0.124 ± 0.038
9,CUUAUCCUCUGGAUCUACUGGGUAUCCUAA,0.121 ± 0.03
10,CUUAAGCUCUGGAUCUACUAGGUUACCUAA,0.0534 ± 0.011
11,CUUAAGGUCUGCUUCUACUGGGUUACCUAA,0.112 ± 0.028
12,CUAUUCCCCUGGAUCUACUGGGUUACCUAA,0.498 ± 0.032
13,CUUAACCUCUGGAUCUACUGGGUUACCAUAA,0.248 ± 0.033
14,GAAUUCCUCUGGAUCUACUGGGUUACUCUAA,0.305 ± 0.046
15,GAAUUCCUCUGGUUCUACUCGGUUACCUAA,0.16 ± 0.017
16,CUUAAGGUCAGGAUCUACAGGGUUACCUAA,0.0122 ± 0.0052
17,CUUAAGCUCAGGAUCUACUGGGUUAGCUAA,0.0368 ± 0.012
18,CUUAACCUCUGGAUCUACUGGGUUAUCCUAA,0.207 ± 0.034
19,CUUUUCCUCUGGAGCUACUGGGUUACCUAA,0.386 ± 0.03
20,CUUAAGGAGACCUACUACUGAGUUACCUAA,0.00666 ± 0.0026
21,CUUAAGGUCUGGAUCUACUGGGUUACCUAU [g2:g23:cont:t1U],0.275 ± 0.025
22,CAAUUCCUGUGGAUCUACUGGGUAACCUAA,0.171 ± 0.035
23,CUAUUCCUCUGGAACUACUGGGUUACGUAA,0.47 ± 0.031
24,CUUAACCUGUGGAUCUACUGCGUUACCUAA,0.247 ± 0.04

row,Sequence,pre-steady-state target cleavage rate
1,CUUAAGGAGAGGAUCUACUGGGUUACCUAC [g2:g20:cont:t1C],0.0183 ± 0.0054
2,GAAUUCCUCUGGAACAACUGGGUUACCUAA,0.397 ± 0.045
3,GAAUUCCUCUGGAACUAGUGGGUUACCUAA,0.221 ± 0.027
4,CUUAAGGUCAGGAUCAACUGGGUUACCUAA,0.0181 ± 0.0069
5,CAAUUCCUACUGGAUCUACUGGGUUACCUAA,0.516 ± 0.056
6,CUAUUCCUCUGGAUGUACUGGGUUAGCUAA,0.341 ± 0.032
7,CUAUACCUCUCGAUCUACUGGGUUACCUAA,0.571 ± 0.052
8,CUUAAGGUCUCGAUCUACAGGGUUACCUAA,0.134 ± 0.02
9,CUAUUCCACAGGAUCUACUGGGUUACCUAA,0.386 ± 0.059
10,CUUUUCCUCCGGAUCUACUGGGUUACCUAA,0.625 ± 0.096
11,CUUAAGGUCUAGAUCUACUGGGUUACCUAA,0.249 ± 0.024
12,GAAUUCCUCUGGAUCUAGCUGGGUUACCUAA,0.00367 ± 0.0036
13,CUUAUCCUCUGGACUCUACUGGGUUACCUAA,0.159 ± 0.02
14,CUUAAGCUCUGGAUCUACUGGGCUUACCUAA,0.0207 ± 0.007
15,CAAUUCCUCUGCAUCUACUGGGUUACCUUA,0.371 ± 0.054
16,CUUAACCUCUGGAUGUACUCGGUUACCUAA,0.102 ± 0.018
17,CUUUUCCUCUGGAUCUACUGCGUUACGUAA,0.44 ± 0.053
18,CUUAACCUCUGGAUCUACUGGCUUUCCUAA,0.0273 ± 0.0076
19,CUUAAGCUCUCGAUCAACUGGGUUACCUAA,0.317 ± 0.025
20,CUUAAGGAGUGGAAGUACUGGGUUACCUAA,0.0127 ± 0.0062
21,CUUAAGGAGAGGAUGUACUGGGUUACGUAA,0.00924 ± 0.0075
22,GAAUUGCUCUGGAUCUACUGGGUUAGCUAA,0.395 ± 0.07
23,CUUAAGCUCUGGAAGAACUGGGUUACCUAA,0.0546 ± 0.021
24,GAAUUCCUCUGGAUCUACGGGGUUACCUAA,0.0615 ± 0.0083

# Reference: the supplement of paper PMC10338343
